Measured values published in the supplement of paper PMC3694890.
± gives the uncertainty stated by the source. The list shows a part of the results. Phosphotyrosine is written y.

Molecular target: GRB2 (endogenous complexes from cell lysate), P62993
Test: GRB2 complex binding differential signal (pY peptide minus Ala control peptide) (fluorescence intensity units); higher = stronger GRB2 complex binding
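Further: phosphopeptide probes on the chip at 1–4 µM, lysate proteins bound in 20 mM Tris pH 7.0 buffer with 140 mM NaCl, 1% Triton X-100 and 5% glycerol.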

Row | Binder | GRB2 complex binding differential signal (MCF7) | GRB2 complex binding differential signal (MCF10A) | GRB2 complex binding differential signal (MDA-MB-231) | GRB2 complex binding differential signal (T47D)
1 | yASSNP [INSR_992/A1] | 1510 ± 550 | 1220 ± 340 | 1160 ± 570 | 2100 ± 1700
2 | yLNIKE [JAK1_3/A1] | 37800 ± 6600 | 16000 ± 3800 | 9430 ± 1800 | 14600 ± 6600
3 | yALVSL [INSR_401/A1] | 131 ± 170 | 260 ± 210 | 695 ± 310 | 1230 ± 1200
4 | yRKGGK [INSR_1190/A1] | -192 ± 240 | 141 ± 230 | 215 ± 220 | –
5 | yETDYY [INSR_1185/A1] | 111 ± 160 | 410 ± 570 | 1100 ± 260 | 2060 ± 1200
6 | yLGTKR [JAK2_966/A1] | 570 ± 340 | 381 ± 150 | 794 ± 280 | 375 ± 850
7 | yLSASD [INSR_999/A1] | 1040 ± 420 | 1190 ± 420 | 857 ± 470 | 798 ± 1300
8 | yAVAAT [ITGA5_328/A1] | 558 ± 270 | 1820 ± 360 | 155 ± 320 | -371 ± 990
9 | yKVKEP [JAK2_1008/A1] | 1280 ± 900 | 2550 ± 420 | 876 ± 420 | 278 ± 870
10 | yAHMNG [IGF1R_1346/A1] | 852 ± 320 | 644 ± 250 | 264 ± 240 | 620 ± 1200
11 | yYKVKE [JAK2_1007/A1] | 3000 ± 510 | 2660 ± 420 | 998 ± 370 | 264 ± 720
12 | yDYQTN [ITK_180/A1] | 27.8 ± 220 | -136 ± 230 | 443 ± 380 | 441 ± 1000
13 | yYVVRE [JAK2_980/A1] | 564 ± 810 | 581 ± 360 | 520 ± 390 | 115 ± 1000
14 | yLRDRS [ADCY2_11/A1] | 3220 ± 830 | 1070 ± 1600 | 550 ± 260 | 729 ± 1100
15 | yEEHIP [INSR_1355/A1] | 821 ± 200 | 753 ± 390 | 383 ± 490 | 589 ± 1200
16 | yIHRDL [JAK2_972/A1] | 171 ± 230 | 559 ± 270 | 267 ± 370 | 192 ± 820
17 | yVVREP [JAK2_981/A1] | 370 ± 1000 | 2670 ± 700 | 991 ± 420 | 463 ± 820
